From the supplement of paper PMC8748497
“And” between values parts separate entries of the source, which are not always exact repeats. Equal entries are not always repeated. Some of the results follow.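 Rule for the calls: active = GRHL reporter fold change of at least 2 over DMSO at 10 µM; inactive = below 2-fold.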 Repeats are few or missing, and single values can be far off.

system: HEK293 GRHL-luciferase reporter; experiment: GRHL luciferase reporter activity, fold change over DMSO control; higher = stronger GRHL reporter activation; conditions: 10 µM; 24 h
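Note: stable HEK293 line carrying repeated GRHL consensus sites upstream of a minimal promoter driving luciferase, luminescence read 24 h post-treatment, normalized to 0.5% DMSO vehicle wells.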

Compound	GRHL luciferase reporter activity
OC[C@@H](O)[C@@H](O)[C@H](O)[C@@H](O)CO	inactive: 0.869
CCN(CC)CCOC(=O)C(c1ccccc1)C1CCCCC1 (stereo not given)	inactive: 0.563
CC(=O)OC(C)C[N+](C)(C)C (stereo not given)	inactive: 0.927
O=C(O)CCCc1ccccc1	inactive: 0.798 and inactive: 1.12
O=C([O-])c1ccccc1[O-].[Bi+3].[OH-]	inactive: 1.27
CCCN(CCC)S(=O)(=O)c1ccc(C(=O)O)cc1	inactive: 0.968
Cc1ccnc2c1NC(=O)c1cccnc1N2C1CC1	inactive: 1.14
CC(C)(Oc1ccc(C2CC2(Cl)Cl)cc1)C(=O)O (stereo not given)	active: 2.33
CC(=O)/N=c1/sc(S(N)(=O)=O)nn1C	inactive: 1.06
COc1ccccc1-c1cc(=O)c2c(OC)cccc2o1	active: 2.61
CC(=O)OCC(=O)[C@@]1(O)CC[C@H]2[C@@H]3CCC4=CC(=O)C=C[C@]4(C)[C@H]3[C@@H](O)C[C@@]21C	inactive: 0.948
COc1ccnc(C[S+]([O-])c2nc3cc(OC(F)F)ccc3[nH]2)c1OC (stereo not given)	active: 2.29
NC(=O)c1ccc[n+]([C@@H]2O[C@H](COP(=O)([O-])OP(=O)(O)OC[C@H]3O[C@@H](n4cnc5c(N)ncnc54)[C@H](O)[C@@H]3O)[C@@H](O)[C@H]2O)c1	inactive: 0.931
CC[C@@H]1C(=O)OC[C@@H]1Cc1cncn1C	inactive: 0.923
CN(N=O)C(=O)N[C@H]1C(O)O[C@H](CO)[C@@H](O)[C@@H]1O (mixture of isomers)	inactive: 0.937
Cn1c(=O)[nH]c2ncn(C)c2c1=O	inactive: 0.925
CC(C)c1c(C(=O)Nc2ccccc2)c(-c2ccccc2)c(-c2ccc(F)cc2)n1CC[C@@H](O)C[C@@H](O)CC(=O)O	inactive: 1.46
N[C@@H](CO)C(=O)O	inactive: 0.773
CCCCC(CC)COC(=O)c1ccccc1O (stereo not given)	inactive: 1.15
Oc1ccc(O)cc1	inactive: 0.981
CC(=O)c1ccc2c(c1)N(CCCN1CCC(CCO)CC1)c1ccccc1S2	inactive: 0.89
COc1cc([C@@H]2c3cc4c(cc3[C@@H](O[C@@H]3O[C@@H]5CO[C@@H](c6cccs6)O[C@H]5[C@H](O)[C@H]3O)[C@H]3COC(=O)[C@H]23)OCO4)cc(OC)c1O	inactive: 0.0805
CC(C)C1=CC2=CC[C@@H]3[C@](C)(CCC[C@@]3(C)C(=O)O)[C@H]2CC1	inactive: 1.16
CC(C)(C)C(=O)OCOP(=O)(COCCn1cnc2c(N)ncnc21)OCOC(=O)C(C)(C)C	inactive: 0.154
C[C@]12C=CC(=O)C=C1CC[C@H]1[C@@H]3C[C@@H](O)[C@](O)(C(=O)CO)[C@@]3(C)C[C@H](O)[C@@]12F	inactive: 1.15
